# Source: the supplement of paper PMC8728848
# The list shows a part of the results.
# B1: ECA (Erythrina cristagalli), P83410 (protein)
# chain: VETISFSFSEFEPGNDNLTLQGAALITQSGVLQLTKINQNGMPAWDSTGRTLYTKPVHMWDSTTGTVASFETRFSFSIEQPYTRPLPADGLVFFMGPTKSKPAQGYGYLGVFNNSKQDNSYQTLAVEFDTFSNPWDPPQVPHIGIDVNSIRSIKTQPFQLDNGQVANVVIKYDAPSKILHVVLVYPSSGAIYTIAEIVDVKQVLPDWVDVGLSGATGAQRDAAETHDVYSWSFQASLPE
# How the values were obtained:
# Test in all cases: glycan array binding signal (z-score within array); higher = stronger binding
# Settings in all cases: glycan notation: IUPAC condensed, linker removed
# [1] = molecular target: Neu5Ac(a2-3)Gal(b1-4)GlcNAc(b1-3)Gal(b1-3)GlcNAc
# Procedure, shortened: (§1)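 Glycan array data came from 3228 arrays in the Consortium for Functional Glycomics database, and only arrays with an available protein sequence were kept. Glycan names were put into IUPAC-condensed notation, and columns mapping to the same glycan were averaged. The binding signal is a within-array Z-score, averaged across arrays of one protein sequence run at different concentrations or buffers and across linkers. A negative Z-score can be read as non-binding.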
# [2] = molecular target: Neu5Ac(a2-3)Gal(b1-4)GlcNAc(b1-3)Gal(b1-4)GlcNAc
# Procedure, shortened: as §1
# [3] = molecular target: Neu5Ac(a2-3)Gal(b1-4)GlcNAc(b1-3)Gal(b1-4)GlcNAc(b1-2)Man(a1-3)[Neu5Ac(a2-3)Gal(b1-4)GlcNAc(b1-3)Gal(b1-4)GlcNAc(b1-2)Man(a1-6)]Man(b1-4)GlcNAc(b1-4)GlcNAc
# Procedure, shortened: as §1
# [4] = molecular target: Neu5Ac(a2-3)Gal(b1-4)GlcNAc(b1-3)Gal(b1-4)GlcNAc(b1-3)Gal(b1-4)GlcNAc
# Procedure, shortened: as §1
# [5] = molecular target: Neu5Ac(a2-3)Gal(b1-4)GlcNAc(b1-3)Gal(b1-4)GlcNAc(b1-3)Gal(b1-4)GlcNAc(b1-2)Man(a1-3)[Neu5Ac(a2-3)Gal(b1-4)GlcNAc(b1-3)Gal(b1-4)GlcNAc(b1-3)Gal(b1-4)GlcNAc(b1-2)Man(a1-6)]GalNAc
# Procedure, shortened: as §1
# [6] = molecular target: Neu5Ac(a2-3)Gal(b1-4)GlcNAc(b1-3)Gal(b1-4)GlcNAc(b1-3)GalNAc
# Procedure, shortened: as §1
# [7] = molecular target: Neu5Ac(a2-3)Gal(b1-4)GlcNAc(b1-3)Gal(b1-4)GlcNAc(b1-3)[Neu5Ac(a2-3)Gal(b1-4)GlcNAc(b1-3)Gal(b1-4)GlcNAc(b1-6)]GalNAc
# Procedure, shortened: as §1
# [8] = molecular target: Neu5Ac(a2-3)Gal(b1-4)GlcNAc(b1-3)Gal(b1-4)GlcNAc(b1-6)[Gal(b1-3)]GalNAc
# Procedure, shortened: as §1
# [9] = molecular target: Neu5Ac(a2-3)Gal(b1-4)GlcNAc(b1-3)Gal(b1-4)[Fuc(a1-3)]GlcNAc
# Procedure, shortened: as §1
# [10] = molecular target: Neu5Ac(a2-3)Gal(b1-4)GlcNAc(b1-3)GalNAc
# Procedure, shortened: as §1
# [11] = molecular target: Neu5Ac(a2-3)Gal(b1-4)GlcNAc(b1-3)[Neu5Ac(a2-3)Gal(b1-4)GlcNAc(b1-6)]GalNAc
# Procedure, shortened: as §1
# [12] = molecular target: Neu5Ac(a2-3)Gal(b1-4)GlcNAc(b1-6)GalNAc
# Procedure, shortened: as §1
# [13] = molecular target: Neu5Ac(a2-3)Gal(b1-4)GlcNAc(b1-6)[Gal(b1-3)]GalNAc
# Procedure, shortened: as §1
# [14] = molecular target: Neu5Ac(a2-3)Gal(b1-4)GlcNAc(b1-6)[Neu5Ac(a2-3)Gal(b1-3)]GalNAc
# Procedure, shortened: as §1
# [15] = molecular target: Neu5Ac(a2-3)Gal(b1-4)GlcNAc6S
# Procedure, shortened: as §1
# [16] = molecular target: Neu5Ac(a2-3)Gal(b1-4)[Fuc(a1-3)]GlcNAc
# Procedure, shortened: as §1
# [17] = molecular target: Neu5Ac(a2-3)Gal(b1-4)[Fuc(a1-3)]GlcNAc(b1-2)Man
# Procedure, shortened: as §1
# [18] = molecular target: Neu5Ac(a2-3)Gal(b1-4)[Fuc(a1-3)]GlcNAc(b1-3)Gal
# Procedure, shortened: as §1
# [19] = molecular target: Neu5Ac(a2-3)Gal(b1-4)[Fuc(a1-3)]GlcNAc(b1-3)Gal(b1-4)GlcNAc
# Procedure, shortened: as §1
# [20] = molecular target: Neu5Ac(a2-3)Gal(b1-4)[Fuc(a1-3)]GlcNAc(b1-3)Gal(b1-4)[Fuc(a1-3)]GlcNAc(b1-3)Gal(b1-4)[Fuc(a1-3)]GlcNAc
# Procedure, shortened: as §1
# [21] = molecular target: Neu5Ac(a2-3)Gal(b1-4)[Fuc(a1-3)]GlcNAc(b1-3)GalNAc
# Procedure, shortened: as §1
# [22] = molecular target: Neu5Ac(a2-3)Gal(b1-4)[Fuc(a1-3)]GlcNAc(b1-6)[Gal(b1-3)]GalNAc
# Procedure, shortened: as §1
# [23] = molecular target: Neu5Ac(a2-3)Gal(b1-4)[Fuc(a1-3)]GlcNAc(b1-6)[Neu5Ac(a2-3)Gal(b1-3)]GalNAc
# Procedure, shortened: as §1
# [24] = molecular target: Neu5Ac(a2-3)Gal(b1-4)[Fuc(a1-3)]GlcNAc6S
# Procedure, shortened: as §1
# [25] = molecular target: Neu5Ac(a2-3)Gal6S(b1-4)GlcNAc
# Procedure, shortened: as §1
# [26] = molecular target: Neu5Ac(a2-3)Gal6S(b1-4)[Fuc(a1-3)]GlcNAc
# Procedure, shortened: as §1
# Neu5Ac(a2-3)GalNAc = molecular target: Neu5Ac(a2-3)GalNAc
# Procedure, shortened: as §1
# [27] = molecular target: Neu5Ac(a2-3)GalNAc(b1-4)GlcNAc
# Procedure, shortened: as §1
# [28] = molecular target: Neu5Ac(a2-3)[GalNAc(b1-4)]Gal(b1-4)Glc
# Procedure, shortened: as §1
# [29] = molecular target: Neu5Ac(a2-3)[GalNAc(b1-4)]Gal(b1-4)GlcNAc
# Procedure, shortened: as §1
# [30] = molecular target: Neu5Ac(a2-3)[GalNAc(b1-4)]Gal(b1-4)GlcNAc(b1-3)GalNAc
# Procedure, shortened: as §1
# [31] = molecular target: Neu5Ac(a2-3)[Neu5Ac(a2-6)]GalNAc
# Procedure, shortened: as §1
# Neu5Ac(a2-6)Gal = molecular target: Neu5Ac(a2-6)Gal
# Procedure, shortened: as §1
# [32] = molecular target: Neu5Ac(a2-6)Gal(b1-3)GlcNAc(b1-3)[Gal(b1-4)GlcNAc(b1-6)]Gal(b1-4)Glc
# Procedure, shortened: as §1
# Neu5Ac(a2-6)Gal(b1-4)Glc = molecular target: Neu5Ac(a2-6)Gal(b1-4)Glc
# Procedure, shortened: as §1
# [33] = molecular target: Neu5Ac(a2-6)Gal(b1-4)GlcNAc
# Procedure, shortened: as §1
# [34] = molecular target: Neu5Ac(a2-6)Gal(b1-4)GlcNAc(b1-2)Man
# Procedure, shortened: as §1
# [35] = molecular target: Neu5Ac(a2-6)Gal(b1-4)GlcNAc(b1-2)Man(a1-3)Man(b1-4)GlcNAc(b1-4)GlcNAc
# Procedure, shortened: as §1
# [36] = molecular target: Neu5Ac(a2-6)Gal(b1-4)GlcNAc(b1-2)Man(a1-3)[Gal(b1-4)GlcNAc(b1-2)Man(a1-6)]Man(b1-4)GlcNAc(b1-4)GlcNAc
# Procedure, shortened: as §1
# [37] = molecular target: Neu5Ac(a2-6)Gal(b1-4)GlcNAc(b1-2)Man(a1-3)[GlcNAc(b1-2)Man(a1-6)]Man(b1-4)GlcNAc(b1-4)GlcNAc
# Procedure, shortened: as §1
# [38] = molecular target: Neu5Ac(a2-6)Gal(b1-4)GlcNAc(b1-2)Man(a1-3)[GlcNAc(b1-4)][Neu5Ac(a2-6)Gal(b1-4)GlcNAc(b1-2)Man(a1-6)]Man(b1-4)GlcNAc(b1-4)GlcNAc
# Procedure, shortened: as §1
# [39] = molecular target: Neu5Ac(a2-6)Gal(b1-4)GlcNAc(b1-2)Man(a1-3)[Man(a1-6)]Man(b1-4)GlcNAc(b1-4)GlcNAc
# Procedure, shortened: as §1
# [40] = molecular target: Neu5Ac(a2-6)Gal(b1-4)GlcNAc(b1-2)Man(a1-3)[Neu5Ac(a2-3)Gal(b1-4)GlcNAc(b1-2)Man(a1-6)]Man(b1-4)GlcNAc(b1-4)GlcNAc
# Procedure, shortened: as §1
# [41] = molecular target: Neu5Ac(a2-6)Gal(b1-4)GlcNAc(b1-2)Man(a1-3)[Neu5Ac(a2-6)Gal(b1-4)GlcNAc(b1-2)Man(a1-6)]Man(b1-4)GlcNAc(b1-4)GlcNAc
# Procedure, shortened: as §1
# [42] = molecular target: Neu5Ac(a2-6)Gal(b1-4)GlcNAc(b1-2)Man(a1-3)[Neu5Ac(a2-6)Gal(b1-4)GlcNAc(b1-2)Man(a1-6)]Man(b1-4)GlcNAc(b1-4)[Fuc(a1-6)]GlcNAc
# Procedure, shortened: as §1
# [43] = molecular target: Neu5Ac(a2-6)Gal(b1-4)GlcNAc(b1-2)Man(a1-6)Man(b1-4)GlcNAc(b1-4)GlcNAc
# Procedure, shortened: as §1
# [44] = molecular target: Neu5Ac(a2-6)Gal(b1-4)GlcNAc(b1-2)Man(a1-6)[Gal(b1-4)GlcNAc(b1-2)Man(a1-3)]Man(b1-4)GlcNAc(b1-4)GlcNAc
# Procedure, shortened: as §1
# [45] = molecular target: Neu5Ac(a2-6)Gal(b1-4)GlcNAc(b1-2)Man(a1-6)[GlcNAc(b1-2)Man(a1-3)]Man(b1-4)GlcNAc(b1-4)GlcNAc
# Procedure, shortened: as §1
# [46] = molecular target: Neu5Ac(a2-6)Gal(b1-4)GlcNAc(b1-2)Man(a1-6)[Man(a1-3)]Man(b1-4)GlcNAc(b1-4)GlcNAc
# Procedure, shortened: as §1
# [47] = molecular target: Neu5Ac(a2-6)Gal(b1-4)GlcNAc(b1-2)[Neu5Ac(a2-6)Gal(b1-4)GlcNAc(b1-4)]Man(a1-3)[GlcNAc(b1-4)][Neu5Ac(a2-6)Gal(b1-4)GlcNAc(b1-2)[Neu5Ac(a2-6)Gal(b1-4)GlcNAc(b1-6)]Man(a1-6)]Man(b1-4)GlcNAc(b1-4)GlcNAc
# Procedure, shortened: as §1
# [48] = molecular target: Neu5Ac(a2-6)Gal(b1-4)GlcNAc(b1-2)[Neu5Ac(a2-6)Gal(b1-4)GlcNAc(b1-4)]Man(a1-3)[GlcNAc(b1-4)][Neu5Ac(a2-6)Gal(b1-4)GlcNAc(b1-4)Man(a1-6)]Man(b1-4)GlcNAc(b1-4)GlcNAc
# Procedure, shortened: as §1
# [49] = molecular target: Neu5Ac(a2-6)Gal(b1-4)GlcNAc(b1-2)[Neu5Ac(a2-6)Gal(b1-4)GlcNAc(b1-6)]Man(a1-6)[Neu5Ac(a2-6)Gal(b1-4)GlcNAc(b1-2)Man(a1-3)][GlcNAc(b1-4)]Man(b1-4)GlcNAc(b1-4)GlcNAc
# Procedure, shortened: as §1
binder,measurement,setting,value
B1,glycan array binding signal (z-score),[1],-0.382
same,glycan array binding signal (z-score),[2],-0.328
same,glycan array binding signal (z-score),[3],2.16
same,glycan array binding signal (z-score),[4],-0.331
same,glycan array binding signal (z-score),[5],7.35
same,glycan array binding signal (z-score),[6],-0.407
same,glycan array binding signal (z-score),[7],0.167
same,glycan array binding signal (z-score),[8],0.412
same,glycan array binding signal (z-score),[9],-0.266
same,glycan array binding signal (z-score),[10],-0.276
same,glycan array binding signal (z-score),[11],-0.085
same,glycan array binding signal (z-score),[12],-0.257
same,glycan array binding signal (z-score),[13],-0.368
same,glycan array binding signal (z-score),[14],-0.123
same,glycan array binding signal (z-score),[15],-0.277
same,glycan array binding signal (z-score),[16],-0.329
same,glycan array binding signal (z-score),[17],-0.398
same,glycan array binding signal (z-score),[18],-0.311
same,glycan array binding signal (z-score),[19],-0.311
same,glycan array binding signal (z-score),[20],-0.108
same,glycan array binding signal (z-score),[21],0.567
same,glycan array binding signal (z-score),[22],-0.138
same,glycan array binding signal (z-score),[23],0.02
same,glycan array binding signal (z-score),[24],-0.188
same,glycan array binding signal (z-score),[25],-0.263
same,glycan array binding signal (z-score),[26],-0.339
same,glycan array binding signal (z-score),Neu5Ac(a2-3)GalNAc,-0.225
same,glycan array binding signal (z-score),[27],-0.303
same,glycan array binding signal (z-score),[28],-0.315
same,glycan array binding signal (z-score),[29],-0.338
same,glycan array binding signal (z-score),[30],-0.601
same,glycan array binding signal (z-score),[31],-0.208
same,glycan array binding signal (z-score),Neu5Ac(a2-6)Gal,-0.208
same,glycan array binding signal (z-score),[32],-0.157
same,glycan array binding signal (z-score),Neu5Ac(a2-6)Gal(b1-4)Glc,-0.273
same,glycan array binding signal (z-score),[33],-0.243
same,glycan array binding signal (z-score),[34],-0.236
same,glycan array binding signal (z-score),[35],-0.165
same,glycan array binding signal (z-score),[36],-0.061
same,glycan array binding signal (z-score),[37],-0.527
same,glycan array binding signal (z-score),[38],-0.22
same,glycan array binding signal (z-score),[39],-0.377
same,glycan array binding signal (z-score),[40],-0.074
same,glycan array binding signal (z-score),[41],-0.327
same,glycan array binding signal (z-score),[42],0.33
same,glycan array binding signal (z-score),[43],-0.317
same,glycan array binding signal (z-score),[44],-0.101
same,glycan array binding signal (z-score),[45],-0.44
same,glycan array binding signal (z-score),[46],-0.141
same,glycan array binding signal (z-score),[47],-0.419
same,glycan array binding signal (z-score),[48],-0.622
same,glycan array binding signal (z-score),[49],-0.44
